The RNAGym collection of RNA variant scans (doi:10.1073/pnas.2313332121)
This sample is rich in variants without activity.

B1: TPR 5TU (parent)
chain: GGAUCUUCUCGAUCUAACAAAAAAGACAAAUCUGCCACAAAGCUUGAGAGCAUCUUCGGAUGCAGAGGCGGCAGCCUUCGGUGGCGCGAUAGCGCCAACGUUCUCAACUAUGACACGCAAAACGCGUGCUCCGUUGAAUGGAGUUUAUCAUG

Variants of: B1
Test: polymerase ribozyme fitness, log enrichment relative to wild type (log ratio); higher = more active; in vitro selection for triplet polymerase activity
Summary of the method: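 The heterodimeric triplet polymerase ribozyme's subunits were each mutagenized into PCR-built libraries and transcribed. Every library was selected once, in triplicate, by annealing with a biotinylated primer, the partner subunit and triplets, incubating frozen at −7 °C, gel-excising extended constructs, capturing on streptavidin beads and running RT-PCR. Input and output libraries were Illumina-sequenced, with genotypes kept only at ≥10 input reads and ≥1 read per output. Fitness, from inverse-variance-weighted replicate averages, is the base-2 logarithm of genotype enrichment over wild-type enrichment.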

Polymerase ribozyme fitness (log ratio), -2.95:
U45A U55A

Polymerase ribozyme fitness (log ratio), -2.81:
U45A G94A

Polymerase ribozyme fitness (log ratio), -4.14:
U45G A137C

Polymerase ribozyme fitness (log ratio), ≤ -4.2:
U45A G46C C85G G88C C93U A115C A150G
U45A G46C G86U U90G G124C
U45A G46U G88U G92U A97C C118U
U45A G48A U53A C93A C103A C114U
U45A G48U G50A G59C G68U C96U C131A A137C G152A
U45A G50A A91U G92C A107C C118U
U45A G50A A98U A106U U111G
U45A G50A C57G G84C C96U G143C U144A U145C
U45A G50A C93U A115U G143C
U45A G50A C96U U101G C108G A122G A138C
U45A G50C C57U G88A A120U U127G
U45A G50C U53A C57A U101G U102G G126A C129G U134G G136U G140U
U45A G58A G83A U148C
U45A G59A G83A C149A
U45A G59C G94A G126U G140C
U45A G65A G83C C87G U144A U145G
U45A G67A C69G C99U
U45A G67C C85A C95G
U45A G68C U78A C93A A107U
U45A G70A C85U U144C
U45A G74U A107G
U45A G80A G88A
U45A G80C A106C A115C U127C
U45A G80U C105A G136A
U45A G83A A122U G136C
U45A G83C C105U C131G
U45A G86A A97U G128U U146A A150C
U45A G88C C123A U148C
U45A G92U A107U
U45A G140A
U45A U53A G80U C85G C105A A106C
U45A U55A C57G C96U G141C
U45A U55A G62A G65A G71U C95U U109G A137G A138U
U45A U56A A73G C93G C105G A115G C123U
U45A U56G A64C G65C C79U C93G
U45A U56G A66C G67C G71U C85G G88U A89G C99U A110G C132G
U45A U56G G59U A66C C96A C116U
U45A U61G C116U C123A
U45A U77C C131U
U45A U77G G84U C118U
U45A U82A G84C G92U U139G
U45A U101G G136A
U45A U109G C132G
U45C C63G A66G C132G
U45C G46U A73G C87U A110G G133U A138G
U45C G48C A64C A122U U135G
U45C G48C C54U C57A G88C C95A C105G A107U G124C
U45C G59U U101G U102C
U45C G62C A91U U104A
U45C G71A A107C C108U
U45C G140C
U45G A49U U55A C103G C125U
U45G A52U U55A A73U C85U G117A C149A
U45G A60C C69A C75U C87G A89C A97U A119G G136C
U45G A60G G86A A110C G141A A147G
U45G A64G G74C G88C A98G G136A A142C
U45G A66G
U45G A66G C76G C93G A98C A110G
U45G A115C A142C
U45G C51A U53A A73U C85A
U45G C54G
U45G C75A C85U C99G A115U
U45G C85G C93U
U45G C87G A91U C99G C105U A137G
U45G C93G C123A
U45G C93U C95G A120G
U45G C108U
U45G C129G A142G U148C
U45G G50A C54U A120C G126C
U45G G50A C87A C103U G124A
U45G G74C G84A C99U A107C C125G C129A
U45G G84C A89G C96U G117C U144A A147C
U45G G94A U104G C116A
U45G U56G A66C A73G A107C G140U
U45G U77A C93U U102G U146G
U45G U77G C85G

Polymerase ribozyme fitness (log ratio), 0.00932:
U45G C116U

Polymerase ribozyme fitness (log ratio), -2.4:
U45G C114U A119U

Polymerase ribozyme fitness (log ratio), -1.08:
U45C G84A

Polymerase ribozyme fitness (log ratio), -3.51:
U45A G83C
